Results on 29 molecules are retold here after the supplement of paper PMC12632987.

B1: GBRAP_160_4058 (protein)
chain: EEKKKELLELVEEARELILETIDEDGVDAAIVVAEGEFGAVIMEAEESEEASEELPDELAKIRDDLVAALKAAKDASPEEQKAIVEKAAEEAKKKIEELM
B2: GBRAP_11_2846 (protein)
chain: EKEKLEEIAKKAEEVEKLLDELIAAGPDDEELWKKVREKLEELKKLVKEHLDESEQELAELAEEELERARADPENALHHLELARAFVRTLKGQVLLKIEE
B3: GBRAP_78_6584 (protein)
chain: EKEELYDKIVEELDRAHELAQQLPPELRNEVLAELTEALSDLYDAETEGNEEESLEEAIRHLERALAIAEAADHPVAPALAAALRAAKELAEELLKLVKE
B4: GBRAP_184_5127 (protein)
chain: ELVRRAVEATDAEELIRKAREVVEEAAARGLRLDLAVFAENMSVEEIIRVIEALGEIRRAHPEVAVTLVVEDELSEEEIDRLVEAADRNGVRLVLAIKEE
B5: GBRAP_166_4872 (protein)
chain: SMEEKLKEAKKKILELIKEAKELDAEERTEKYIEIGEIIKELKEEGASEEEILELIREIFKAAKEEGLDVRLLAGIIINVVGFDEETIDKVEKILEEVLK
B6: GBRAP_11_2863 (protein)
chain: KKEEAEKAAKLAEEAIKVLDELLKEGVDNEELRKKLKELLEELQKLVEENFDEDEKELVEIAIENFEKAQKDPANAEEHIQNALAALRVLQGQLLLRIDE
B7: GBRAP_9_7171 (protein)
chain: DKEKKEKIKKVVLEAFEEILKVVPEEKKPLVEKAKEKAKKELEALLKDPNTTLEEFKEKAKKLLEELVKEMKEAVDPETAAAVEAIALTAIEEIDEILEE
B8: GBRAP_35_5514 (protein)
chain: STDDTIAEMLESYIEDLTLAVPELDPETLHTLTLGAAEMARELIEDNKNNKEIVKRIKESLERLLEALEARGLDDPLLREAAERVREVIEYAEEVLKEIE
B9: GBRAP_184_5357 (protein)
chain: EVEHLSVTVTTEAEAREKLAEAAARIRASGRPTVLVVTLENADLETVETAARLLAELRAEGLIERGIIDVPDDRSEEEIDKMVAIADKYGVDLVVAIPEE
B10: GBRAP_128_3180 (protein)
chain: SLEEVRARTRAAMEAIAASDPETARAIAEELFDWLKTLSDEEAEAAVDEILARLPELTAEHLEILADVAREKRPTYTPEKAELVADLEVEALNLLEELEE
B11: GBRAP_43_5777 (protein)
chain: SKEIVEGALDTAKLIAEDPNIDDDTKVKAIQAAFDLAADEGYVDEELVKEVIDAANASLSAEALKKIAKHLDERAKKYPEFAEVFKKAKADVEAAIKAKE
B12: GBRAP_52_6180 (protein)
chain: MEEEIRKAIEEIYELVKAGKLEEAKKLAEELVKSLNEEELKLLVKEYGKFAEEQPLEDEDAVFETAEIIAEAIEEAGKDEALAEDLLAAAAAALYKKELE
B13: GBRAP_160_4377 (protein)
chain: SEELKKLIEEIKKLLEEFEKEAENLTPEEAKILAKGVLSEVAALVFENEEVSEETEDEIMEIIDKALAELDKLKNATPEEIVAVTKEAIEKIIELIEKEI
B14: GBRAP_160_4359 (protein)
chain: SETLERLIKEIREATEEVIKEIDKLSREEVAAVADGLFGEIAMEAVEDESMPDEVVDIIVEARDEIRKLLKEKKDASPEEIKKGIREITEKAIEKMKEAG
B15: GBRAP_166_4912 (protein)
chain: SMEEKVEKAKKEIEKLVKEMPKLDAEGQTEALIEIAEVIRELKEAGASEEEILEVLRFLAEKLKEEGLDVEHYMAIVAAAAEFDEEEMDKIDEIVEEVLK
B16: GBRAP_9_7115 (protein)
chain: MLVDPEKLKAAVEEAEKSLKEFAEDIEDEKVAEIVEKAIKEMKALTEIEGITLEELEERLDEIVDKATEEARKTVSPEIAKALEAELLTEREAILEAVEE
B17: GBRAP_160_4348 (protein)
chain: MEAAEELIEKVREATDRVIAAIDEVSVEQAAVIAAGEFGAVAMEAAEDERYSDEMVDVVVDAMDEIIAFLKANADASPEELKAGIREITDKAIERLKEIA
B18: GBRAP_11_2693 (protein)
chain: EKEKLKKGAELAEELAKVLEKLLEEGVDNEELLKKAKELLEELEKLTKEYGDEGNKKLTEILKELFEKALEDKENAEKYVQEALAAARVLAGNYLLEIEE
B19: GBRAP_35_5571 (protein)
chain: DFDEETVEMLIATIEDLTLAVPDMPLPDAVAAALSLARAAEELVEELKDNPELLKRIAEALKKLLAAVKAHYGDSPEAKEAAKKIEEVIKKAEELAKKAE
B20: GBRAP_160_4825 (protein)
chain: SETLKKAKELLEETVERAIELIEGETPEERAAIVAVELGEFILELSELPEVSDEALDEVAKIADETVDTIKANPDLTLEEIKALLEESKKKIIEALEKHF
B21: GBRAP_26_5480 (protein)
chain: IEEKVREILEELKKLLEELLDPELAAAALAEATTIIIEAAEKMEENKDNPEKLKEIVEKAVKELREELKRLGVSEEKAEKIVEKARKGLEELAKLILEES
B22: GBRAP_14_3779 (protein)
chain: MEEIEKIIREHGEEIIELLTEIVPEKAEEIEEIVRRVVEETIKRIRETGNALEAAEEGKERLKEEIAKLLADLPEEVRARALAVVEVEFGQAILEIEELL
B23: GBRAP_125_2996 (protein)
chain: PTPAQLEDLAALLRALGFDDEDVAEAVALAARHGLRGTLYAALLALGEEETAELVARLTEAQTAAVLRRLRAWLEAHPDATPEEVVARLAELAREELAAA
B24: GBRAP_166_4890 (protein)
chain: STEEAIKKIEELAAAAIANIANLTDEELLAVFIDMVEIVEEAGATPELREAAARNFARIVAAAVAAGRDWDRVESLALAAVGDDEELLDAVEAELARMRA
B25: GBRAP_78_6573 (protein)
chain: EIEELVDEAIEKLNEAATKLAKLNTPEAQDILDEVVDALSYLLEAEEEGFDLELLEEALKEVEKAIELVKKVPDKEYEEILKLLEEAKKLLKEAIKLVKE
B26: GBRAP_53_6426 (protein)
chain: MEARIAELRERARALTERATRADPETRAALVAEIGAVLAELKAAGAPDAEITALAAEIARRLRAAGAPPSALVALARELAELGLEEGTAAVAEEAVEELE
B27: GBRAP_52_6067 (protein)
chain: MKKKIEEYAEKITEAVKAGDKEKALELIKKMVEELSLEEIKETLELAAKKVAELGEEEHELFVDILTEAEDILIEKGISEEDALLIVGAAEAALAKAVAA
B28: GBRAP_52_6111 (protein)
chain: AAEAARALVEEVLALVRAGREEEARARLRAFARTADEEAVRLFAEALAERARAAAPEDWEAVWRLAEMAEEALLEEGWDEALADDLLARTAAALYERELA
B29: GBRAP_125_3024 (protein)
chain: SAEQVVEDLGLIARALGFSEGDVALLMEEARKHGIKGAFIALMLAEGLEKEAELAEKLTEEEVVEVVKEVAAWLKAHPDATPEEVKEKILEVLEKAVAKS

Whole data set: some 4,500 sequences, median “median log2 fold change of GCK-ALFA target abundance (FLAG IP / Myc IP barcode read proportion)” near 0.078, cut for the lowest 2% near -0.6. The list shows a part of the results.

GABARAP, O95166, sequence (O95166 whole entry, the tested form may be a part): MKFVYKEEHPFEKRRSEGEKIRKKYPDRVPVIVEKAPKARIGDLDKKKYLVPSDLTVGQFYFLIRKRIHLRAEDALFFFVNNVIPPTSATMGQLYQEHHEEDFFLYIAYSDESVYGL

The target of the test is GABARAP, O95166. Kind of test: median log2 fold change of GCK-ALFA target abundance (FLAG IP / Myc IP barcode read proportion) (log2 ratio); each designed protein is fused to an ALFA-tag nanobody in HEK293 cells to bring the named protein to FLAG-tagged glucokinase (GCK); Myc marks an untargeted standard; higher = target protein stabilised (more abundant). The settings on record: target protein: 3xFLAG-MCP-GCK-ALFA reporter; HEK293 landing pad (RPLP). The method in brief:
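Sequencing of reverse-transcribed, amplified circular RNA barcodes from anti-FLAG and anti-Myc immunoprecipitates provided the readout for an ALFA-nanobody-fused binder library recombined into HEK293 landing-pad cells. Those cells were induced with 2 μg mL^−1 doxycycline, transfected with a plasmid expressing a FLAG-tagged target and a Myc-tagged standard, and lysed after 48 h. Target abundance is the per-binder median log2 ratio of FLAG to Myc barcode read proportions. Only barcodes at a proportion of ≥10^−7 in both replicates and binders with ≥3 barcodes per replicate were kept, with a 10^−6 pseudocount added before the two replicates were pooled.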
With B1, the “median log2 fold change” value was 0.148.

Take B2: the “median log2 fold change” value was 0.197.

On to B3, for which the “median log2 fold change” value was -0.203.

Regarding B4, the “median log2 fold change” value was determined as 0.183.

For the molecule B5, the “median log2 fold change” value is 0.402.

Consider B6, for which the “median log2 fold change” value amounted to 0.201.

On to B7, for which the “median log2 fold change” value stood at 0.342.

As to B8, the “median log2 fold change” value was -0.908.

As to B9, the “median log2 fold change” value is -0.0153.

With B10, the “median log2 fold change” value was 0.0856.

Regarding B11, the “median log2 fold change” value was 0.283.

Take B12: the “median log2 fold change” value was -0.133.

With B13, the “median log2 fold change” value amounted to 0.173.

As for B14, the “median log2 fold change” value was 0.141.

With B15, the “median log2 fold change” value is 0.304.

Regarding B16, the “median log2 fold change” value was 0.323.

Regarding B17, the “median log2 fold change” value was 0.0332.

Take B18: the “median log2 fold change” value is 0.552.

On to B19, for which the “median log2 fold change” value is 0.185.

As for B20, the “median log2 fold change” value worked out at 0.133.

As to B21, the “median log2 fold change” value amounted to 0.163.

Turning to B22, the “median log2 fold change” value was determined as 0.275.

B23: the “median log2 fold change” value was -0.199.

In the case of B24, the “median log2 fold change” value was 0.302.

In the case of B25, the “median log2 fold change” value turned out to be 0.0551.

Take B26: the “median log2 fold change” value turned out to be 0.229.

Regarding B27, the “median log2 fold change” value was -0.383.

For B28, the “median log2 fold change” value was -0.131.

For the molecule B29, the “median log2 fold change” value is 0.229.
